Some of these densities may be calculated back from excess volumes.
Assay: xn = mol fraction of the nth substance listed
Conditions: 101 kPa

CC[n+]1ccn(C)c1.N#C[S-] + CCO
mass density [kg/m3]
Conditions | 283.15 K | 293.15 K | 303.15 K | 313.15 K | 323.15 K
x1 = 0.0504 | 847.8 | 839.7 | – | – | 815.1
x1 = 0.1001 | 884.2 | 876.4 | 868.7 | 860.9 | 853
x1 = 0.2012 | 942.9 | 935.6 | – | 921 | 913.7
x1 = 0.3003 | 985.3 | 978.3 | 971.4 | 964.4 | 957.5
x1 = 0.3945 | 1018.1 | 1011.4 | 1004.7 | 998 | 991.3
x1 = 0.5007 | 1047.5 | 1041 | 1034.4 | 1027.9 | 1021.5
x1 = 0.6016 | 1069.4 | 1063.4 | 1057.4 | – | 1045
x1 = 0.7018 | 1087.2 | 1080.9 | 1074.6 | – | –
x1 = 0.8045 | – | 1095.9 | 1089.6 | 1083.5 | 1077.4
x1 = 0.8971 | – | – | 1100.7 | – | 1088.6
x1 = 0.951 | 1119.2 | 1113 | – | 1100.8 | –
x1 = 1 | 1124.5 | 1118.3 | 1112.2 | – | 1100.2

CCO + CC[n+]1ccn(C)c1.N#C[S-]
x2 = 0
Conditions | mass density [kg/m3]
283.15 K | 798
313.15 K | 772.1
323.15 K | 763.2

From a compilation of properties of binary mixtures (doi:10.1021/acs.jced.0c00801)
